The list shows a part of the results. At the low end of the ranking the order means little.
The sequences below were run against T1, GST-Rok-C97-191 (UniProt O34857) (assay: protein binding microarray). Conditions: Rok is a gene silencer of Bacillus subtilis; high values mean tight binding; most listed sequences are background and not binding sites; double strand, one strand shown.
T1 sequence: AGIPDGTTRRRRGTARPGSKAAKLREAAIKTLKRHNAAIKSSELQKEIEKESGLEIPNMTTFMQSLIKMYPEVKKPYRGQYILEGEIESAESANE
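Also: rank score from −0.5 (least bound) to 0.5 (best bound).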

Row | Sequence | binding signal [E-score]
1 | ACTCTCAA | -0.0398
2 | ACAGAAAC | 0.121
3 | CGCAGAAG | -0.171
4 | GCATGCAC | -0.209
5 | ATTTCGAA | 0.0379
6 | GTACTCTA | 0.205
7 | CACACCGC | 0.152
8 | CAGGCGTC | -0.146
9 | ACCACCTA | 0.0261
10 | CCCAGTCA | -0.198
11 | AACAAACG | -0.0605
12 | CCGCACAG | -0.277
13 | CCGGCTGA | -0.0819
14 | ATAGGTGA | -0.0624
15 | AGCAGTCG | -0.179
16 | AGTTCAAG | 0.0194
17 | GCAGCTCC | -0.115
18 | CGAGGGAA | -0.0959
19 | CATACGCA | 0.0592
20 | AGGGCACT | -0.0365
21 | AGTCTACA | 0.0463
22 | ACGCCAGA | -0.13
23 | GTGCTCGA | -0.0814
24 | ATTAGCAG | 0.0537
25 | TAGTTTGA | 0.31

Row | Sequence | binding signal [E-score]
26 | GGAAATCC | -0.344
27 | AAACTCAC | 0.074
28 | AATGACAT | 0.115
29 | GATGCAAA | -0.0546
30 | GTATGCCA | 0.096
31 | CGTTGTAA | 0.104
32 | CTCAACGC | 0.0818
33 | GCTGGTCC | -0.187
34 | AAGAGAAA | 0.121
35 | ACGGTTGG | -0.0902
36 | AAATCCTT | -0.0125
37 | AGAGTGAA | -0.0588
38 | AAGAACTC | 0.0626
39 | CGATTAAG | 0.00538
40 | GGTAGTAA | 0.396
41 | CATCTAAC | 0.0116
42 | GGATTACC | -0.136
43 | CAACTCGA | 0.0565
44 | AATCGCAC | -0.0861
45 | TCTATACA | 0.155
46 | AGAGCTGC | -0.0455
47 | CTAGCTAC | 0.163
48 | AGGTACAT | 0.184
49 | GGACAGAC | -0.0976
50 | CCATCACG | -0.26

Row | Sequence | binding signal [E-score]
51 | ACAGCATG | 0.0808
52 | AAAGTGAG | 0.0398
53 | GTCCGCAC | -0.0626
54 | CAGTTCAG | -0.167
55 | GACCACTA | 0.0394
56 | TCAAAAAA | -0.0915
57 | CCAGGTGA | -0.032
58 | CGTTATAA | 0.176
59 | TCCGCCAA | -0.23
60 | GATTTGAA | 0.0956
61 | GAGCTACC | -0.142
62 | TGGAACAA | 0.0826
63 | CACTGTCC | 0.0415
64 | ATTTTGCG | 0.0669
65 | ACGCTCCT | -0.0443
66 | CCGTTCCA | 0.0402
67 | CTGATCAA | -0.0448
68 | ACATCAGA | -0.0562
69 | ACCTTAAG | 0.0939
70 | AGGGTTTG | -0.0397
71 | CTAGGTCA | -0.0732
72 | TACGACCA | 0.0695
73 | CCTAGTTC | 0.0163
74 | AGTTTACA | 0.155
75 | AAAGAGAA | 0.00506

Row | Sequence | binding signal [E-score]
76 | AACAGTGT | 0.232
77 | ACCACCTC | 0.0137
78 | GGACATCC | -0.169
79 | CTATGATA | 0.209
80 | AGATAAGC | 0.238
81 | GCCTCAAA | -0.134
82 | GTATTATA | 0.388
83 | ACAATCGC | 0.0137
84 | AGCGCACG | -0.161
85 | AAAGGACC | -0.323
86 | CAAAGCCC | -0.186
87 | ACCGAGGT | -0.137
88 | AGGAACAC | -0.177
89 | CCTTCTTA | 0.0486
90 | GCCTTGCA | -0.175
91 | CCAGGCAG | -0.281
92 | CAAGGCCG | -0.175
93 | GCAGAATA | 0.015
94 | ACCTAACA | -0.0427
95 | CACACTGA | -0.208
96 | ACATTGGG | 0.0736
97 | TGATCACA | -0.0398
98 | ACTTGTGG | -0.109
99 | ATTGGCCC | -0.217
100 | AGGTTCCG | -0.0655

Row | Sequence | binding signal [E-score]
101 | ACTCAGAC | -0.0417
102 | GTAGACGA | 0.033
103 | ACTACACG | 0.186
104 | AGGCATGA | -0.117
105 | GAATGTAA | 0.173
106 | CTGAACGC | -0.149
107 | AAACTCAG | 0.0837
108 | CTAAACAA | -0.137
109 | CATCGACA | 0.122
110 | AGGGTGAG | -0.238
111 | CTGCACTC | -0.137
112 | CACGGCAA | 0.0436
113 | CTACGGAA | 0.183
114 | CAAGGTCC | -0.223
115 | CCTTGGCA | -0.346
116 | TAATTTCA | 0.318
117 | AATAGGCG | -0.135
118 | AGCGATTC | -0.0588
119 | AAGTTCGC | 0.0383
120 | GCAAGTGA | 0.0852
121 | CTGTTCCC | -0.222
122 | CTAGACAC | 0.00927
123 | CTAAACTA | 0.386
124 | ACTGAGGG | -0.132
125 | AGTTTCAA | 0.104

Row | Sequence | binding signal [E-score]
126 | GAAACGCC | -0.103
127 | ATATTTAA | 0.338
128 | AAAAAACA | 0.19
129 | AAAGATGT | -0.0898
130 | GTATGAAA | 0.0513
131 | CCATAGGC | -0.199
132 | CACCATTA | 0.0781
133 | AACCTATG | -0.0266
134 | CCGGACAA | -0.145
135 | GAGCACAA | -0.0601
136 | GCTAACAC | -0.0971
137 | AATTAACG | 0.167
138 | AAGTCTGA | -0.046
139 | AGATGGGG | -0.112
140 | GACCTCCC | -0.206
141 | CAGCGGTC | -0.314
142 | ATGGTGAA | 0.0706
143 | CGAATTCC | -0.0979
144 | ATTCCCAA | 0.0599
145 | AGGGGCAA | -0.224
146 | GAGAGGCC | -0.269
147 | CGGAGGAC | -0.262
148 | CAGCGCAA | 0.0298
149 | GTCTGCTA | -0.00452
150 | AGGTGTTC | -0.0999

Row | Sequence | binding signal [E-score]
151 | CCGCCGTA | -0.127
152 | CGTGGGAG | -0.259
153 | GTGCAAAC | -0.0469
154 | CAAGACAC | -0.287
155 | CCTATACG | -0.0365
156 | TATGCCGA | -0.0394
157 | CATGAGTA | 0.155
158 | CGTTATCC | -0.0591
159 | GATCTCAC | -0.0111
160 | TGGGGTAA | 0.0549
161 | ATGAGCGA | -0.156
162 | CATGCGCC | -0.338
163 | AGTACCGG | 0.129
164 | ATCATCTC | -0.184
165 | AAAATCGG | -0.095
166 | CTATGTGA | 0.125
167 | CAGCCAGC | -0.201
168 | CCCTCGAG | -0.186
169 | CGCGTAAG | -0.117
170 | CATTGTCC | -0.279
171 | GCTCCTTA | -0.0834
172 | CGTAGGCC | -0.0817

From PMC6212790
